This passage reports inhibition results from PubChem BioAssay AID485344 (National Center for Advancing Translational Sciences (NCATS), 2010).

Screen size: about 340,000 compounds; about 6,900 (2%) were called active. Cut-off read from the data, not from the text of the source: active = inhibition above about 30%; inactive = below that, where a call was filed. The entries are a selection whose mix differs from that of the whole data set. Where no call is shown, the source filed none. Some structures have more than one record in an assay (separate samples or runs), and their calls can disagree.

Sequence of UniProt P14416 (P14416 whole entry, looked up): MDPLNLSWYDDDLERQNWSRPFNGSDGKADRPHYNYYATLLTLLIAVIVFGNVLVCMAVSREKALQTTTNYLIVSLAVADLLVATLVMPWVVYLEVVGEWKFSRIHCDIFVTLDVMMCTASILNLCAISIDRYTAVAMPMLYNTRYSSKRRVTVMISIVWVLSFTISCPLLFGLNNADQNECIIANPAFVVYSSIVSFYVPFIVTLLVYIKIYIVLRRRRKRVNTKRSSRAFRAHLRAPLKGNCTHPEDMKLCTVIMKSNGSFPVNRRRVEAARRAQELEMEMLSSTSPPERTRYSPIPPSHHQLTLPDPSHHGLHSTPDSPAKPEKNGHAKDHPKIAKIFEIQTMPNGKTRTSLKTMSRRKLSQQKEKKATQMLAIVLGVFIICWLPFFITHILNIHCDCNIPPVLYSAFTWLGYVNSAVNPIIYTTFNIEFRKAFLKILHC

This experiment deals with D(2) dopamine receptor (Homo sapiens) (UniProt P14416). Briefly: HTS Assay for Allosteric Antagonists of the Human D2 Dopamine Receptor: Primary Screen for Antagonists. Note: 0% is about no effect. Particulars: HEK293 TREx D2 cells, calcium flux, dopamine EC80; at 10 µM; stronger effect = higher value. In short, it runs like this:
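Cells plated overnight at 30 C with tetracycline; no-wash calcium dye, 30–90 min RT; 10 s baseline; compound pinned; 180 s read; EC80 dopamine added; another 180 s read.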
For orientation: Calcium flux is commonly read through the fluorescence of an indicator in the cells.
What is called inhibition is the relative decrease from the control value, in per cent. For the compound `CN1CCN(C(=O)Nc2cccc(Cl)c2)c2cccnc21`, the inhibition turned out to be 12.4%.

On to `CC(C)c1ccc(NC(=O)CSc2nc(=O)n(Cc3cccnc3)c3c2CCC3)cc1`, for which the inhibition is -16.5%.

As to `CC1CN(C(=O)N2CCC(C(=O)NCc3ccco3)CC2)c2cc(Cl)ccc2O1` (configuration not stated), the inhibition was -0.456%.

`COc1ccc(NC(=O)c2cc(-c3ccccc3O)no2)cc1`: the inhibition was -14.3%.

Consider `O=C(CSc1nc(-c2cccs2)nc2cc(=O)[nH]n12)Nc1ccc(F)cc1`, for which the inhibition came to 5.77%.

In the case of `CCOc1ccc(NC(=O)CNS(=O)(=O)c2ccc(Br)s2)cc1`, the inhibition worked out at 9.28%.

With `CCOC(=O)c1sc2ccccc2c1S(=O)(=O)N1CCN(c2ccccc2)CC1`, the inhibition was -3.29%.

Turning to `Cc1ccc(OCc2nc(-c3ccc(C(=O)NCCc4ccc(S(N)(=O)=O)cc4)cc3)oc2C)cc1`, the inhibition is 0.307%.

On to `COC(=O)c1c(NC(=O)CCCOc2ccccc2C)sc2c1CCC(C)C2` (configuration not stated), for which the inhibition is -6.6%.

As for `COc1ccccc1CNC(=O)CN1C(=O)CCc2cc(S(=O)(=O)N3CCOCC3)ccc21`, the inhibition is -8.81%.

On to `O=C(Nc1ccc2nc(SCC(=O)N3CCCC3)sc2c1)c1ccccc1F`, for which the inhibition was -3.26%.

Regarding `COc1ccc(CNC(=O)c2c(Nc3ccccc3C)sc(C(=O)c3ccccc3)c2N)cc1`, the inhibition came out at 13%.

For the compound `CCc1ccc(NC(=O)CCCc2nc(-c3ccco3)no2)cc1`, the inhibition turned out to be 5.37%.

Regarding `CCOC(=O)C1CCCN(C(=O)Cn2ncc3c([nH]c4ccc(C)cc43)c2=O)C1` (configuration not stated), the inhibition came to 4.27%.

Turning to `O=C1Nc2ccccc2CCc2ccccc21`, the inhibition is active: 35.8%.

On to `CCCC(CCC)C(=O)Nc1cccc(-c2cn3cccnc3n2)c1`, for which the inhibition is 0.45%.

As to `CC1CCCN(CCCNC(=O)c2ccc3c(c2)N(Cc2ccc(F)cc2)C(=O)c2ccccc2S3=O)C1` (configuration not stated), the inhibition is active: 74.3%.

`Cc1ccc(C)c(N2CCN(C(=O)c3ccc4[nH]c(C)c(C)c4c3)CC2)c1`: the inhibition amounted to 1.56%.

`CCn1c(SCc2ccccc2F)nc(=O)c2c(C(=O)OC)cc(C3CC3)nc21`: the inhibition is -4.7%.

`CCOc1ccc(-c2cc(C(=O)NCc3ccc(C)cc3)c3ccccc3n2)cc1`: the inhibition was -22.3%.

As for `Cc1cccc(N2CCN(C(=O)c3ccc(NC(=O)c4nsc5ccccc45)cc3)CC2C)c1` (configuration not stated), the inhibition was determined as 6.71%.

`CCOc1ccc(Cl)cc1C1CC(=O)Nc2cc(OC)c(OC)c(OC)c21` (configuration not stated): the inhibition was -0.322%.

In the case of `CCOC(=O)C1CCCN(c2oc(-c3ccc(F)cc3)nc2C#N)C1` (configuration not stated), the inhibition was active: 35.1%.

Regarding `COc1ccccc1CNC(=O)c1sc2nc3n(c(=O)c2c1C)CCC3`, the inhibition was found to be 14.7%.

Take `CCOc1ccc(CNS(=O)(=O)c2ccc(-c3cc(C(F)(F)F)on3)s2)cc1`: the inhibition was -17.4%.

For `CCOC(=O)c1ccc(NC(=O)C2CCN(S(=O)(=O)c3ccc(C)cc3)CC2)cc1`, the inhibition was -16.5%.

As to `CC(=O)c1nn(-c2ccc(OC(F)(F)F)cc2)nc1Nc1ccc(C)cc1`, the inhibition was -17.1%.

On to `CC(CCc1ccccc1)NCC(O)COc1ccccc1` (configuration not stated), for which the inhibition is active: 55.4%.

For the compound `Cc1cc(C)c(C)c(OCCNCc2ccccc2)c1`, the inhibition was active: 75.1%.

Consider `COc1ccccc1CNC(=O)CS(=O)Cc1nc(-c2ccc(OC)c(OC)c2)oc1C` (configuration not stated), for which the inhibition is -12.8%.

As to `CCCNCC(O)COc1ccccc1C(=O)CCc1ccccc1` (configuration not stated), the inhibition is active: 35.1%.

`Cc1ccc(CCNC(=O)c2ccc(CSCc3ccccc3C)o2)cc1`: the inhibition was determined as 26.6%.

With `CCC1CN(C(=O)N2CCC(C(=O)O)CC2)c2cc(C)ccc2O1` (configuration not stated), the inhibition was 11.4%.

Consider `Cc1ccc2nc(-c3ccc(NC(=O)COc4ccc(Cl)c(C)c4)cc3)sc2c1`, for which the inhibition was 5.58%.

On to `CCN(Cc1ccccc1)C(=O)C1CCN(S(=O)(=O)c2c(C)noc2/C=C/c2ccc(C)cc2)CC1`, for which the inhibition was determined as 14.2%.

`COc1ccc(Nc2cc(C)c3cc(NC(=O)Cc4c(F)cccc4Cl)ccc3n2)cc1`: the inhibition was 10.2%.

As to `CCn1c(CN2CCCCC2)nc2cc(NC(=O)c3cccc([N+](=O)[O-])c3)ccc21`, the inhibition is 25.8%.

For the compound `Cc1cc(C)c[n+](-c2nc3ccccc3nc2C(=C=[N-])C#N)c1`, the inhibition was active: 34.3%.

`COc1cc(-c2nc(C(N)=O)c3c(n2)n(-c2cccc(C)c2)c(=O)n3C)cc(OC)c1OC`: the inhibition was -5.4%.

As to `N#Cc1cccc(NC(=O)C2CCN(c3nc(-c4ccc(Cl)cc4)no3)CC2)c1`, the inhibition was -17.9%.

In the case of `Cc1ccc(CCNC(=O)CSCc2nc(-c3ccc(C)cc3)oc2C)cc1`, the inhibition stood at 0.019%.

Regarding `COC(=O)c1ccccc1NC(=O)c1ccc(=O)n(Cc2cccc(C)c2)c1`, the inhibition was determined as 2.46%.

For the compound `Cc1ccc(CNC(=O)c2nn(C)c3c2CSc2ccc(C)cc2-3)cc1`, the inhibition is -0.865%.

On to `CCOc1ccc(-c2nnc(SCC(=O)Nc3cc(C)ccc3OC)o2)cc1`, for which the inhibition amounted to 6.5%.

As for `CC(C)c1ccc(NC(=O)Cn2c3ncccc3c(=O)n2-c2ccccc2)cc1`, the inhibition worked out at 5.29%.

Turning to `CCn1c(=O)n(CC)c2cc(N3CCCC3)c(NC(=O)Nc3cc(C)cc(C)c3)cc21`, the inhibition was found to be 11.5%.

Regarding `COc1ccccc1N1CCN(C(=O)c2ccc(Nc3nc4ccccc4n4nnnc34)cc2)CC1`, the inhibition was determined as 14.9%.

As for `COc1ccc(S(=O)(=O)c2c(O)c(C)cc(NC(=O)c3ccccc3)c2C(C)C)cc1`, the inhibition is -10%.

`Cc1cccc(-c2nnc(SCC(=O)N3CCCCC3)o2)c1`: the inhibition was -19%.

As for `O=C(Nc1ccccc1F)c1oc2ccccc2c1NC(=O)c1c(F)cccc1F`, the inhibition stood at 15.8%.

In the case of `Cc1cccn2c(=O)cc(COc3cccc(NC(=O)c4cccc(Cl)c4)c3)nc12`, the inhibition worked out at 3.88%.

Turning to `CNc1nc2c(c(=O)n(C)c(=O)n2C)n1CC(O)COc1ccc(OC)cc1` (configuration not stated), the inhibition amounted to 11.8%.

Take `COc1ccc(NS(=O)(=O)c2ccc(-n3cccn3)cc2)cc1OC`: the inhibition is -3.67%.

In the case of `Cn1nc(C(=O)NCCc2ccc(Cl)cc2)c2c1-c1ccccc1SC2`, the inhibition was -0.553%.

In the case of `CN(C(=O)c1cc2nc(-c3ccc4c(c3)OCO4)cc(C(F)(F)F)n2n1)c1ccc(OC(F)(F)F)cc1`, the inhibition is -8.97%.

Regarding `CCN(Cc1ccccc1)C(=O)Cn1c(=O)n(-c2cccc(C)c2)c(=O)c2c1c1cc(OC)ccc1n2C`, the inhibition was -8.56%.

With `CC(C)c1ccc(OCC(=O)NCC(c2ccc(Cl)cc2)N2CCOCC2)cc1` (configuration not stated), the inhibition is -14%.

`Cc1nc2c(C(=O)NCCc3ccc(Cl)cc3)cnn2c(C)c1Cc1ccc(F)cc1`: the inhibition is -0.273%.

`COc1ccc(N2C(N)=C(C#N)C(c3cc(CN4CCOCC4)cs3)C3=C2CCCC3=O)cc1` (configuration not stated): the inhibition came out at 15.1%.

For the compound `CC(C)NC(=O)C1CCN(C(=O)c2cnn(-c3ccccc3)c2-n2cccc2)CC1`, the inhibition was 4.57%.

`Cc1ccc(NS(=O)(=O)c2ccc3c(c2)C(C(C)C)C(=O)N3)cc1C` (configuration not stated): the inhibition was -3.18%.

Regarding `Cn1c(=O)cc(SCC(=O)N2CCN(Cc3ccc4c(c3)OCO4)CC2)c2ccccc21`, the inhibition is active: 40.9%.
